Data reported in the supplement of paper PMC4604168 (melanoma cell lines).
Some of the results follow. Single values are uncertain, as repeats are few or missing.

Key:
Test in all cases: cell count relative to DMSO control; melanoma cells; higher = more viable cells
Settings in all cases: library dose: low library concentration; 72 h
[1] = system: WM115
[2] = system: WM1716
[3] = system: WM1745
[4] = system: WM3526
[5] = system: WM3619
[6] = system: WM451Lu
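Further: cell number obtained by counting DAPI-stained nuclei in high-throughput microscope images with image analysis software, screen run in 1,536-well plates.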

SMILES	cell count [1]	cell count [2]	cell count [3]	cell count [4]	cell count [5]	cell count [6]
O=C(/C=C/c1cccnc1)NCCCCC1CCN(C(=O)c2ccccc2)CC1 + O=C(Nc1ccccc1)c1cc([N+](=O)[O-])ccc1Cl [GW9662] (first compound 0.01 µM, partner dose 2 µM)	94%	94.9%	108%	106%	63.1%	117%
CC1(C)CCC(c2ccc(Cl)cc2)=C(CN2CCN(c3ccc(C(=O)NS(=O)(=O)c4ccc(N[C@H](CCN5CCOCC5)CSc5ccccc5)c(S(=O)(=O)C(F)(F)F)c4)cc3)CC2)C1 + COc1ccc(COc2ccc(Cc3cnc(N)nc3N)cc2OC)cc1 [GW2580] (first compound 0.4 µM, partner dose 1 µM)	92.8%	102%	17.4%	97.6%	79.7%	87.8%
Cc1ccc(Nc2nccc(N(C)c3ccc4c(C)n(C)nc4c3)n2)cc1S(N)(=O)=O [Pazopanib] + COc1ccc(COc2ccc(Cc3cnc(N)nc3N)cc2OC)cc1 [GW2580] (first compound 0.4 µM, partner dose 1 µM)	97.3%	82.9%	93.5%	37.8%	95.3%	89.6%
O=C(/C=C/c1cccnc1)NCCCCC1CCN(C(=O)c2ccccc2)CC1 + C=CCn1c(=O)c2cnc(Nc3ccc(N4CCN(C)CC4)cc3)nc2n1-c1cccc(C(C)(C)O)n1 [MK1775] (first compound 0.01 µM, partner dose 0.02 µM)	77.4%	79.3%	81.6%	117%	69%	99.8%
O=C(/C=C/c1cccnc1)NCCCCC1CCN(C(=O)c2ccccc2)CC1 + Nc1nc(F)nc2c1ncn2[C@@H]1O[C@H](CO)[C@@H](O)[C@@H]1O [fludarabine] (first compound 0.01 µM, partner dose 0.2 µM)	92%	83.6%	91.1%	38.7%	91.2%	94.5%
O=C(/C=C/c1cccnc1)NCCCCC1CCN(C(=O)c2ccccc2)CC1 + COc1ccc(COc2ccc(Cc3cnc(N)nc3N)cc2OC)cc1 [GW2580] (first compound 0.01 µM, partner dose 1 µM)	96.7%	95.3%	105%	106%	84.2%	94.1%
CC1(C)CCC(c2ccc(Cl)cc2)=C(CN2CCN(c3ccc(C(=O)NS(=O)(=O)c4ccc(N[C@H](CCN5CCOCC5)CSc5ccccc5)c(S(=O)(=O)C(F)(F)F)c4)cc3)CC2)C1 + O=C(O)[C@@H]1[O][Sb](=[O])([O][Sb]2(=[O])[O][C@H]([C@H](O)CO)[C@H](O)[C@H](C(=O)O)[O]2)[O][C@H]([C@H](O)CO)[C@@H]1O [stibogluconate] (first compound 0.4 µM, partner dose 2 µM)	86.4%	56.5%	10.1%	85.1%	70.7%	83.7%
CC1(C)CCC(c2ccc(Cl)cc2)=C(CN2CCN(c3ccc(C(=O)NS(=O)(=O)c4ccc(N[C@H](CCN5CCOCC5)CSc5ccccc5)c(S(=O)(=O)C(F)(F)F)c4)cc3)CC2)C1 + O=C(O)c1ccc(-c2c[nH]c3ncc(-c4ccccc4)cc23)cc1C1CCCC1 [GSK650394] (first compound 0.4 µM, partner dose 0.16 µM)	87.2%	72.6%	10.7%	75.3%	75.9%	71.9%
Cc1ccc(Nc2nccc(N(C)c3ccc4c(C)n(C)nc4c3)n2)cc1S(N)(=O)=O [Pazopanib] + C#Cc1cccc(Nc2ncnc3cc(OCCOC)c(OCCOC)cc23)c1 [erlotinib] (first compound 0.4 µM, partner dose 0.8 µM)	92.2%	80.6%	89.5%	95.6%	107%	94.5%
CC1(C)CCC(c2ccc(Cl)cc2)=C(CN2CCN(c3ccc(C(=O)NS(=O)(=O)c4ccc(N[C@H](CCN5CCOCC5)CSc5ccccc5)c(S(=O)(=O)C(F)(F)F)c4)cc3)CC2)C1 + Nc1cccc2c1CN(C1CCC(=O)NC1=O)C2=O [lenalidomide] (first compound 0.4 µM, partner dose 1 µM)	83.8%	71.9%	14%	86.9%	77.9%	91.7%
Cc1ccc(Nc2nccc(N(C)c3ccc4c(C)n(C)nc4c3)n2)cc1S(N)(=O)=O [Pazopanib] + Cn1cc(/C=C2\C(=O)Nc3cccnc32)c2ccccc21 [GW441756] (first compound 0.4 µM, partner dose 0.4 µM)	102%	99.6%	98.1%	92.9%	84.2%	94.9%
O=C(/C=C/c1cccnc1)NCCCCC1CCN(C(=O)c2ccccc2)CC1 + C[C@@H](N)c1ccc(C(=O)Nc2ccnc3[nH]ccc23)cc1 [RKI983] (first compound 0.01 µM, partner dose 0.4 µM)	107%	64.4%	90%	119%	74%	85.5%
O=C(/C=C/c1cccnc1)NCCCCC1CCN(C(=O)c2ccccc2)CC1 + OCCn1cc(-c2cnc3nnn(Cc4ccc5ncccc5c4)c3n2)cn1 [PF04217903] (first compound 0.01 µM, partner dose 1 µM)	93.5%	95.9%	120%	94.5%	117%	94.8%
Cc1ccc(Nc2nccc(N(C)c3ccc4c(C)n(C)nc4c3)n2)cc1S(N)(=O)=O [Pazopanib] + NC1(c2ccc(-c3nc4ccn5c(=O)[nH]nc5c4cc3-c3ccccc3)cc2)CCC1 [MK2206] (first compound 0.4 µM, partner dose 0.4 µM)	90.5%	99.8%	94.8%	83.6%	110%	97.5%
CC1(C)CCC(c2ccc(Cl)cc2)=C(CN2CCN(c3ccc(C(=O)NS(=O)(=O)c4ccc(N[C@H](CCN5CCOCC5)CSc5ccccc5)c(S(=O)(=O)C(F)(F)F)c4)cc3)CC2)C1 + Cn1c(=O)n(-c2ccc(C(C)(C)C#N)cc2)c2c3cc(-c4cnc5ccccc5c4)ccc3ncc21 [NVP-BEZ235] (first compound 0.4 µM, partner dose 0.004 µM)	88.6%	79.9%	11%	81%	63.5%	79%
CC1(C)CCC(c2ccc(Cl)cc2)=C(CN2CCN(c3ccc(C(=O)NS(=O)(=O)c4ccc(N[C@H](CCN5CCOCC5)CSc5ccccc5)c(S(=O)(=O)C(F)(F)F)c4)cc3)CC2)C1 + Clc1ccc(Nc2nnc(Cc3ccncc3)c3ccccc23)cc1 [vatalanib] (first compound 0.4 µM, partner dose 2 µM)	71.2%	71.2%	7.98%	74.7%	75.6%	64.7%
CC1(C)CCC(c2ccc(Cl)cc2)=C(CN2CCN(c3ccc(C(=O)NS(=O)(=O)c4ccc(N[C@H](CCN5CCOCC5)CSc5ccccc5)c(S(=O)(=O)C(F)(F)F)c4)cc3)CC2)C1 + Nc1nc(F)nc2c1ncn2[C@@H]1O[C@H](CO)[C@@H](O)[C@@H]1O [fludarabine] (first compound 0.4 µM, partner dose 0.2 µM)	36.3%	71.1%	14.4%	21.5%	57.8%	31.6%
Cc1ccc(Nc2nccc(N(C)c3ccc4c(C)n(C)nc4c3)n2)cc1S(N)(=O)=O [Pazopanib] + CC(=O)O[C@@]12CO[C@@H]1C[C@H](O)[C@@]1(C)C(=O)[C@H](O)C3=C(C)[C@@H](OC(=O)[C@H](O)[C@@H](NC(=O)OC(C)(C)C)c4ccccc4)C[C@@](O)([C@@H](OC(=O)c4ccccc4)[C@H]21)C3(C)C [Docetaxel] (first compound 0.4 µM, partner dose 0.0001 µM)	73.7%	36.1%	66.8%	46.3%	83%	69.4%
O=C(/C=C/c1cccnc1)NCCCCC1CCN(C(=O)c2ccccc2)CC1 + CCCCCCCCCCCC1=C(O)C(=O)C=C(O)C1=O [Embelin] (first compound 0.01 µM, partner dose 1.2 µM)	76.7%	94.7%	115%	108%	88.7%	102%
O=C(/C=C/c1cccnc1)NCCCCC1CCN(C(=O)c2ccccc2)CC1 + CC(C)(C)c1cnc(CSc2cnc(NC(=O)C3CCNCC3)s2)o1 [SNS-032] (first compound 0.01 µM, partner dose 0.01 µM)	85.1%	87.3%	90.9%	122%	53.9%	104%
O=C(/C=C/c1cccnc1)NCCCCC1CCN(C(=O)c2ccccc2)CC1 + Cc1ccc(NC(=O)c2cccc(N(C)C)c2)cc1NC(=O)c1ccc(O)cc1 [ZM336372] (first compound 0.01 µM, partner dose 2 µM)	88.5%	119%	86.1%	92.3%	71.8%	123%
CC1(C)CCC(c2ccc(Cl)cc2)=C(CN2CCN(c3ccc(C(=O)NS(=O)(=O)c4ccc(N[C@H](CCN5CCOCC5)CSc5ccccc5)c(S(=O)(=O)C(F)(F)F)c4)cc3)CC2)C1 + NCC(=O)Nc1ccc(-n2nc(C(F)(F)F)cc2-c2ccc3c(ccc4ccccc43)c2)cc1 [OSU03012] (first compound 0.4 µM, partner dose 1 µM)	60.8%	68.4%	13.5%	32.9%	94.2%	73.5%
CC1(C)CCC(c2ccc(Cl)cc2)=C(CN2CCN(c3ccc(C(=O)NS(=O)(=O)c4ccc(N[C@H](CCN5CCOCC5)CSc5ccccc5)c(S(=O)(=O)C(F)(F)F)c4)cc3)CC2)C1 + OCc1c[nH]c2ccccc12 [Indole-3-carbinol] (first compound 0.4 µM, partner dose 0.8 µM)	100%	91.8%	11.1%	89.6%	96.8%	96.5%
